According to article PMC10362054, “p53 restoration in small cell lung cancer identifies a latent cyclophilin-dependent necrosis mechanism” (Nature Communications, 2023):
Results are given in words; binding and its absence hold for the method and conditions named. Binding seen in cells or lysates may run through a third protein. Some entries that bind do so weakly or less than the wild type.

Chains of the proteins cited; added tags and fusions are not shown. Residues count along the entry.
UniProt P17742: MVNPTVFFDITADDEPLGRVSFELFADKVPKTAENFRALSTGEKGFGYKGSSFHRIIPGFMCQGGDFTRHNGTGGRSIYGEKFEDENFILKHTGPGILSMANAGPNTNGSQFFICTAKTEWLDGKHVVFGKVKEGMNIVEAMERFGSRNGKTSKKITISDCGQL
UniProt Q9QZH3: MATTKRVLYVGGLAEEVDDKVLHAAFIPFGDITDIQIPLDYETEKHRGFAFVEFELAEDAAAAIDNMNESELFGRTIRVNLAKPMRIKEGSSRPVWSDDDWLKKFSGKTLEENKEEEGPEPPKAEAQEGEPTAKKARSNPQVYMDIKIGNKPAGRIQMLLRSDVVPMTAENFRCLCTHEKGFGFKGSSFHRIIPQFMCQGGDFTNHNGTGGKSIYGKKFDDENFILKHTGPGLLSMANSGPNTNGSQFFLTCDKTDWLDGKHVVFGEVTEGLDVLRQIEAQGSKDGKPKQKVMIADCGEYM
UniProt Q99KR7, residues 30-206: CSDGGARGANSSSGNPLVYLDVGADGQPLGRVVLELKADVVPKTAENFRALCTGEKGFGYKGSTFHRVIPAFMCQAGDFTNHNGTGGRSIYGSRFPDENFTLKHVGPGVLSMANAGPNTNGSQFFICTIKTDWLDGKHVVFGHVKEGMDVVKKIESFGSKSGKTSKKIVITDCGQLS

Assays:
[1] = biological target: FLAG-PPIA (cyclophilin A) (mouse) (UniProt P17742); assay: co-IP; as a1, but 24 h after CsA treatment of the cells; Cyclosporin-A included during lysis, anti-FLAG gel incubation and washes
[2] = biological target: FLAG-PPIE (cyclophilin E) (mouse) (UniProt Q9QZH3); assay: co-IP; HEK293T cells overexpressing FLAG-Ppia or FLAG-Ppie and HA-Trp53; lysis in NP-40 buffer (0.1% NP-40, 15 mM Tris-HCl pH 7.4, 1 mM EDTA, 150 mM NaCl, 1 mM MgCl2, 10% glycerol); anti-FLAG M2 affinity gel, 4 °C, 2 h; immunoblot
[3] = biological target: FLAG-PPIA (cyclophilin A) (mouse) (UniProt P17742); assay: as above
[4] = biological target: Cyclophilin A (endogenous) (mouse (endogenous in mouse SCLC tumor-derived cell lines)) (UniProt P17742); assay: proximity ligation; as a3, cells treated with 4-OHT and CsA for 48 h
[5] = biological target: Cyclophilin D (endogenous) (mouse (endogenous in mouse SCLC tumor-derived cell lines)) (UniProt Q99KR7); assay: proximity ligation; Duolink PLA on fixed Type D (4711-18) and Type V (4716-10) mouse SCLC cells treated with 4-OHT for 48 h; endogenous proteins; antibodies to p53 and to cyclophilin A, D or E
[6] = biological target: Cyclophilin E (endogenous) (mouse (endogenous in mouse SCLC tumor-derived cell lines)) (UniProt Q9QZH3); assay: as above
[7] = biological target: Cyclophilin A (endogenous) (mouse (endogenous in mouse SCLC tumor-derived cell lines)) (UniProt P17742); assay: as above

Molecule: HA-p53 (HA-Trp53) (from UniProt P02340 1-390)
- binding [1]: no binding (condition: with Cyclosporin A (CsA))
- binding [2]: no binding
- binding [3]: binds

B1: p53 (endogenous, restored Trp53 allele) (natural protein, UniProt P02340 1-390, looked up)
chain: MTAMEESQSDISLELPLSQETFSGLWKLLPPEDILPSPHCMDDLLLPQDVEEFFEGPSEALRVSGAPAAQDPVTETPGPVAPAPATPWPLSSFVPSQKTYQGNYGFHLGFLQSGTAKSVMCTYSPPLNKLFCQLAKTCPVQLWVSATPPAGSRVRAMAIYKKSQHMTEVVRRCPHHERCSDGDGLAPPQHLIRVEGNLYPEYLEDRQTFRHSVVVPYEPPEAGSEYTTIHYKYMCNSSCMGGMNRRPILTIITLEDSSGNLLGRDSFEVRVCACPGRDRRTEEENFRKKEVLCPELPPGSAKRALPTCTSASPPQKKKPLDGEYFTLKIRGRKRFEMFRELNEALELKDAHATEESGDSRAHSSYLKTKKGQSTSRHKKTMVKKVGPDSD
notes: p53 expressed from the restored endogenous Trp53 allele (p53 R state) in cell lines derived from mouse SCLC tumors; source: endogenous, mouse SCLC Type D (4711-18) and Type V (4716-10) cells after 4-OHT, fixed cells
- binding [4]: no binding (condition: with Cyclosporin A (CsA), 48 h)
- binding [5]: binds weakly
- binding [6]: no binding
- binding [7]: binds
